# Test results as given in PubChem BioAssay AID488969 (Vanderbilt High Throughput Screening Facility, 2010).
# The full ranking holds about 110,000 compounds; the median of “z-score” is about -0.1, and the highest 2% start at about 2. The list shows a part of the results. Active and inactive are the calls of the source.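 How the source made its calls: active means z-score in the third read window above 3 or below -3; inactive means the rest.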
# Target: Metabotropic glutamate receptor 8 (Rattus norvegicus) (UniProt P70579)
# Assay: mGluR8 Gi/Go-coupled signaling modulation – cell-based, rat, thallium flux, HTS, primary screen (AID 488969)
# Conditions: HEK293 rat mGluR8, GIRK (G protein-gated inwardly rectifying potassium channel) thallium flux, FluoZin2; at 10 µM; stronger effect = higher value; submaximal glutamate (EC20) added with thallium
# Sequence of UniProt P70579 (P70579 whole entry, looked up): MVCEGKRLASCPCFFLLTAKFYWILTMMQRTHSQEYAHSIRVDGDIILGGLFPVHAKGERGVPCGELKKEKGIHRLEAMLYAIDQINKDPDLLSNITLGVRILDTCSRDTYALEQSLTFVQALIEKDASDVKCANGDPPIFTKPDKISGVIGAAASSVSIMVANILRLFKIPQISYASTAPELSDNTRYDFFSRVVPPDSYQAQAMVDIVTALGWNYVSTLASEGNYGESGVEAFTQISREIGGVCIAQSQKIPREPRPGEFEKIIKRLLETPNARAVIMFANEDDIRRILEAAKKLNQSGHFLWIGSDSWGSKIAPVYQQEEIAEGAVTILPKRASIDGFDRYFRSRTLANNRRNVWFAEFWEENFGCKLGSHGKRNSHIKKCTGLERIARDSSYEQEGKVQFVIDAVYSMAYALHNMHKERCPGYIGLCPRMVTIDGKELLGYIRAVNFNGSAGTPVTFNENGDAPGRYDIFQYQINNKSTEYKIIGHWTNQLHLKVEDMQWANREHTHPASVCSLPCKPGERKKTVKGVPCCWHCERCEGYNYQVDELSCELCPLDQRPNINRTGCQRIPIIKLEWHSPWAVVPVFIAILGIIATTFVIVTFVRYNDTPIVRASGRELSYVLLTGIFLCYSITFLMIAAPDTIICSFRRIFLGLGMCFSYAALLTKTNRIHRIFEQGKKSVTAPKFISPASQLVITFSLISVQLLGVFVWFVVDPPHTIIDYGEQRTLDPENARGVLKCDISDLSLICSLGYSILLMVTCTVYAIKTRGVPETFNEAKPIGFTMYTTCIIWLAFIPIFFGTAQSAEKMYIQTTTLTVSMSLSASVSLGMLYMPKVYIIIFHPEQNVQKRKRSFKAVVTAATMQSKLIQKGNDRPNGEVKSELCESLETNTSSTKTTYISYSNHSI
row,SMILES,z-score
1,COc1ccccc1CNC(=O)c1ccccc1OC,-0.186
2,CCCc1cc(C(=O)NNC(=S)NC(C)c2ccccc2)cs1 (configuration not stated),0.211
3,O=C(c1ccc(Cn2cc(Cl)cn2)o1)N1CCN(Cc2ccc3c(c2)OCO3)CC1,0.247
4,Cc1ccc(C(=O)Nc2nnn(C)n2)cc1,-0.309
5,N#Cc1c(SCc2ccccc2)sc(C(=O)c2ccccc2)c1N,-0.149
6,O=S(=O)(Cc1ccccc1)NCc1cccnc1,0.705
7,O=c1sc(Nc2ccccc2)nc2ccsc12,-0.965
8,C=CCc1cccc(OC)c1OCCOCCNCCO,0.46
9,CN(C)c1ncnc2c1ncn2C1OC(CO)C(O)C1O (configuration not stated),-0.162
10,O=C(NCCN1CCN(c2ccccc2)CC1)C1CCN(S(=O)(=O)N2CCOCC2)CC1,-0.0498
11,CC1(C)Oc2ccc3ccc(=O)oc3c2C(/C=N/O)C1=O (configuration not stated),-0.123
12,N#Cc1c(C(F)(F)F)cc(-c2ccccc2)nc1SCC(=O)N1CCOCC1,0.167
13,O=C(NCN1CCCCC1)c1cccnc1,-0.466
14,Cc1c(C(=O)Nn2cnnc2)oc2ccccc12,-0.239
15,Cc1ccc(-n2c(Cc3ccccc3)n[nH]c2=S)cc1,0.0128
16,O=C(CCN1C(=O)c2ccccc2S1(=O)=O)Nc1nc2c(s1)CCCC2,-0.477
17,S=C(NCc1ccco1)N1CCN(Cc2ccc(Cl)cc2Cl)CC1,0.101
18,Cc1nn(C)cc1CNC(=O)COc1ccc(Cl)cc1Cl,-1.27
19,COc1ccc(OC)c(C2C(C(=O)c3ccc(C)o3)=C(O)C(=O)N2CCCN2CCOCC2)c1 (configuration not stated),0.000947
20,CCOc1ccc(NC(=O)c2cc3cc4ccc(OC)cc4nc3o2)cc1,0.334
21,CCCN(CC(=O)Nc1cccc(Br)c1)CC(=O)Nc1ccc(F)c(F)c1F,-0.131
22,CC12CC3(C)CC(C)(C1)CC(C(=O)Nc1nn[nH]n1)(C2)C3,-0.174
23,S=c1[nH]ncn1/N=C/c1ccc(Br)cc1,-0.0645
24,CN(CC(N)=O)S(=O)(=O)c1ccc(F)cc1,-0.00769

row,SMILES,z-score
1,COc1ccc(CCNC(=O)CN2CCN(S(=O)(=O)c3ccc(Cl)cc3)CC2)cc1OC,-0.122
2,O=c1cc(CN2CCN(c3ccccc3F)CC2)c2cc3c(cc2o1)CCCC3,-0.635
3,O=C(N/C=C\c1ccccc1)NCc1ccc(Cl)cc1Cl,0.0685
4,CC1CCN(C(=O)CN(CCc2ccccc2)S(C)(=O)=O)CC1,-1.02
5,CCOC(=O)c1c(C2CCN(C(=O)OCC)CC2)nc2ccccn12,-1.34
6,Cc1ccc(NC(=O)CSc2nc(=O)cc(N)n2-c2ccccc2)cc1,-0.553
7,CS(=O)(=O)N1CCN(c2ccccc2NC(=O)C(c2ccccc2)c2ccccc2)CC1,-0.00583
8,O=C(Nc1ccccc1C(F)(F)F)NC1CCCCCCC1,0.0591
9,Brc1ccc(-c2nc(-c3ccccn3)no2)o1,-0.142
10,COc1ccccc1-c1cc(-c2ccccc2)nc(SC(C(N)=O)c2ccccc2)c1C#N (configuration not stated),-0.0167
11,CCOC(=O)c1c(C#N)c(SCC(=O)Nc2ccc(OC)cc2)nc2c1CN(CC)CC2,-0.756
12,COC(=O)C1=NN(C(=O)c2ccc(C)cc2)C(O)(c2ccc(Cl)cc2)C1 (configuration not stated),active: 8.48
13,CCOc1ccc(NC(=O)C2CCN(S(=O)(=O)c3cccnc3)CC2)cc1,0.256
14,CN(NC(=O)C(C)(C)C)c1nc(-c2ccccc2)nnc1C(F)(F)F,-0.349
15,CCN(NC(=O)C(O)(c1ccccc1)c1ccccc1)C(=O)c1ccccc1,0.112
16,Cc1nc2ccccc2c(=O)n1/N=C/c1ccccn1,0.777
17,COc1cccc(/C=C/C(=O)c2c(O)cc(C)oc2=O)c1O,-0.722
18,Cc1ccc(-c2cc(C(F)F)n3ncc(C(=O)Nc4ccc(S(=O)(=O)Nc5ccccc5C)cc4)c3n2)cc1,-0.423
19,Cc1c(NC(=O)C2CCCO2)cccc1[N+](=O)[O-] (configuration not stated),0.0386
20,CC(C1CC1)N(Cc1ccccc1)C(=S)Nc1cccc(C(F)(F)F)c1 (configuration not stated),0.103
21,CS(=O)(=O)N1CCCC(C(=O)NCCc2ccc(Cl)cc2)C1 (configuration not stated),-0.676
22,Cc1cc(C)c2ccc(C)[n+]([O-])c2c1O,-0.0291
23,CCOC(=O)c1ccc(NC(=O)CN2C(=O)C(CC)SC(CC)C2=O)cc1 (configuration not stated),1.35
24,COC(=O)c1ccccc1NC(=O)CSc1nnc(-c2cccc(NC(C)=O)c2)n1C,-1.41

row,SMILES,z-score
1,Cc1nnc(-c2cnn(-c3ccccc3)c2N)n1Cc1ccncc1,-0.125
2,O=C(Cc1ccc(-n2cccc2)cc1)NCc1ccccc1Cl,-0.262
3,CC(c1ccccc1)C1CC(=O)N(C2CCCCC2)C1=O (configuration not stated),1.21
4,Cc1ccc(C(=O)Nc2ccc3c(c2)OCO3)cc1S(=O)(=O)N1CCCC1,-0.613
5,Cc1cccc(C(=O)N[C@H](C(=O)Nc2cc(S(=O)(=O)N3CCCCC3)ccc2C)C(C)C)c1,-0.375
6,CCNc1nc(Oc2ccc(Cl)cc2Cl)cc(C(F)(F)F)n1,-0.068
7,COCCn1nnnc1C(c1cccc(OC)c1OC)N1CCN(C2CCCCC2)CC1 (configuration not stated),-0.0491
8,Cc1ccc(SCCNC(=O)c2ccc(C)c(S(=O)(=O)Nc3ccccc3C)c2)cc1,-0.0879
9,COc1ccc(CN2CC(C(=O)NCC3CCCO3)CC2=O)cc1 (configuration not stated),-0.17
10,CC1CCCC(C(=O)OCc2ccccc2)N1 (configuration not stated),0.267
11,CCN(CC)S(=O)(=O)c1ccc(Cl)c(C(=O)NC2CCCC2)c1,0.272
12,Cc1onc(-c2ccccc2Cl)c1C(=O)OCC(=O)c1ccc2c(c1)OCCO2,-0.959
13,CCN(CC(=O)N1CCN(C)CC1)S(=O)(=O)c1ccc(Cl)cc1,-0.0769
14,Cc1cc(NS(=O)(=O)c2ccc(NC(=O)CN3C(=O)c4ccccc4C3=O)cc2)nc(C)n1,0.763
15,CCS(=O)(=O)N1CCC(C(=O)N2CCc3ccccc3C2)CC1,-0.393
16,CC1CN(Cc2nc3c(c(=O)n(C)c(=O)n3C)n2CC(=O)c2ccccc2)CC(C)O1 (configuration not stated),0.0268
17,Cn1cnnc1SCC(=O)Nc1ccc2c(c1)CCC2,0.0373
18,Cc1csc(NC(=O)CSc2nnc(-c3ccc(Cl)cc3)n2N)n1,-0.145
19,CCCSc1nsc(N)n1,-0.215
20,O=[N+]([O-])c1ccc(COc2cccc(CNc3ccc(F)cc3)c2)cc1,0.0807
21,CCN(CC)c1ccc(/C=N/N2CCN(Cc3ccc(C)cc3)CC2)c(O)c1,-0.258
22,CCN(CC)C(=S)NC(=O)c1ccc(Cl)cc1Cl,2.95
23,NC(=O)CCS(=O)(=O)CCN1CCCCC1,0.0272
24,CCOc1ccc(CNC(=O)c2ccc(Sc3ccc(C)cc3)c(NC(C)=O)c2)cc1,-0.148
